Source: the supplement of paper PMC4604168 (melanoma cell lines)
The other results are listed elsewhere or left out. Single values are uncertain, as repeats are few or missing.

What follows are compounds tested on COLO829 (assay: cell count relative to DMSO control; melanoma cells; higher = more viable cells). Details: library dose: low library concentration; 72 h.
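Note: cell number obtained by counting DAPI-stained nuclei in high-throughput microscope images with image analysis software, screen run in 1,536-well plates.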

SMILES	cell count [%]
Nc1nc(F)nc2c1ncn2[C@@H]1O[C@H](CO)[C@@H](O)[C@@H]1O [fludarabine] + c1cc(-c2cnn3cc(-c4ccc(OCCN5CCCCC5)cc4)cnc23)ccn1 [Dorsomorphin] (first compound 0.2 µM, partner dose 0.4 µM)	90.9
CO[C@H]1C[C@@H]2CC[C@@H](C)[C@@](O)(O2)C(=O)C(=O)N2CCCC[C@H]2C(=O)O[C@H]([C@H](C)C[C@@H]2CC[C@@H](OCCO)[C@H](OC)C2)CC(=O)[C@H](C)/C=C(\C)[C@@H](O)[C@@H](OC)C(=O)[C@H](C)C[C@H](C)/C=C/C=C/C=C/1C [everolimus] + O=C(Nc1ccccc1)c1cc([N+](=O)[O-])ccc1Cl [GW9662] (first compound 0.02 µM, partner dose 2 µM)	71
CC(=O)c1c(C)c2cnc(Nc3ccc(N4CCNCC4)cn3)nc2n(C2CCCC2)c1=O [palbociclib] + COC(=O)c1sccc1S(=O)(=O)Nc1ccc(Nc2ccccc2)cc1OC [GSK0660] (first compound 0.04 µM, partner dose 1 µM)	98.8
CO[C@H]1C[C@@H]2CC[C@@H](C)[C@@](O)(O2)C(=O)C(=O)N2CCCC[C@H]2C(=O)O[C@H]([C@H](C)C[C@@H]2CC[C@@H](OCCO)[C@H](OC)C2)CC(=O)[C@H](C)/C=C(\C)[C@@H](O)[C@@H](OC)C(=O)[C@H](C)C[C@H](C)/C=C/C=C/C=C/1C [everolimus] + Cn1cc(/C=C2\C(=O)Nc3cccnc32)c2ccccc21 [GW441756] (first compound 0.02 µM, partner dose 0.4 µM)	86.6
